About 31,000 (8.9%) of roughly 350,000 compounds were called active. This list was built around the results that the source calls inconclusive (neither active nor inactive); the mix of calls is not that of the screen. Calls follow the shape of the dose curve; as a rule, active = well fitted inhibition curve with a large enough effect; inconclusive = small, poorly fitted or top-dose-only effect; inactive = no such curve, though single readings can be large or run the other way. Potencies of inconclusive entries are doubtful fits and often do not repeat. Some structures have more than one record in an assay (separate samples or runs), and their calls can disagree.
Each molecule was assayed against Histone-lysine N-methyltransferase EHMT2 (Homo sapiens) (UniProt Q96KQ7) (assay: qHTS Assay for Inhibitors of Histone Lysine Methyltransferase G9a). Conditions: G9a H3K9 monomethylation, AlphaScreen, 2 h; activity, negative = inhibition: at 59 µM (top of the series) unless noted.
In short: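 G9a (20 nM) preincubated 15 min RT with compounds, then 500 nM biotinylated H3K9 peptide and 20 uM SAM added; 2 h RT reaction. Monomethyl-H3K9 product detected by AlphaScreen with anti-H3K9me1 antibody, streptavidin donor and anti-rabbit IgG acceptor beads.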
% is scaled to controls: 0 for no effect and ±100 for the full control effect; potency is read from the fitted curve at half-maximal effect; tags tell the direction and shape of the fitted curve.
Also: nearly all actives have a fitted effect of over 75% in size.

UniProt Q96KQ7, sequence (Q96KQ7 whole entry, looked up): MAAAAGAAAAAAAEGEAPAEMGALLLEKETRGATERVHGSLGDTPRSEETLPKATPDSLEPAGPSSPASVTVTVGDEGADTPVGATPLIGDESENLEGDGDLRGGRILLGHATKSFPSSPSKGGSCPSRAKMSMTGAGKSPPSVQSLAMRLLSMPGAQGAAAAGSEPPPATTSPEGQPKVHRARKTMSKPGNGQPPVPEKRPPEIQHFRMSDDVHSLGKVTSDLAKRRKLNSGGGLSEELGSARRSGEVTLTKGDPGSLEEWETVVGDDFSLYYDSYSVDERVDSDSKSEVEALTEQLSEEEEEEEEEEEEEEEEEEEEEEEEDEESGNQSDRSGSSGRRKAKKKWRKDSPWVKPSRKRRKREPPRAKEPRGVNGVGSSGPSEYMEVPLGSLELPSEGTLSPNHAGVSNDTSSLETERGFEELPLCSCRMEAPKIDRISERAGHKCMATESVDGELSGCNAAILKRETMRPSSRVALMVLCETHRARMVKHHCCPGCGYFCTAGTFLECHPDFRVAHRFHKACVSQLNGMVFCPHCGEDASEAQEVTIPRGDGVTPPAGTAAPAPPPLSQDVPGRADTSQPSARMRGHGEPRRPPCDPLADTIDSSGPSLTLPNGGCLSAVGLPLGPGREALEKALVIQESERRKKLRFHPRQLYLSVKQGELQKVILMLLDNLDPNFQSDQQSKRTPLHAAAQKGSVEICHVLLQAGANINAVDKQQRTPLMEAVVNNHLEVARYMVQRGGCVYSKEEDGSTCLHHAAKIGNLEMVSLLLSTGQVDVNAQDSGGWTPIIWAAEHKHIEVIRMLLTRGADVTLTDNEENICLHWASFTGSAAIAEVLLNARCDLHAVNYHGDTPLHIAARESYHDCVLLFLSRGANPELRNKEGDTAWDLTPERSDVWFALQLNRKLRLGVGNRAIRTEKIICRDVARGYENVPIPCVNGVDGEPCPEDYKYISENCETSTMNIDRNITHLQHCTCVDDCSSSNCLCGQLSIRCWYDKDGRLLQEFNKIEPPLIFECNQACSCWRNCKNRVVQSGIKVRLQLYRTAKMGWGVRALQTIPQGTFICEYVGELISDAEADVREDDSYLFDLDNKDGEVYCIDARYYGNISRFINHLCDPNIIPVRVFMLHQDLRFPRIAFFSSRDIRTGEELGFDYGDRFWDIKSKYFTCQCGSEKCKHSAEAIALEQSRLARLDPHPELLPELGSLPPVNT

How did the Potency turn out when `NC(=O)C1CCN(C2CC(=O)N(Cc3ccc(N4CCCC4=O)cc3)C2=O)CC1` (stereo not given) was run?
Its Potency is active: 44.7 µM.

With `COc1ccccc1-n1c(=O)[nH]c2c(C(N)=O)nc(C3CCCCC3)nc21` as the molecule, how does the Potency read?
Its Potency is inconclusive: 89.1 µM [inhibitor, single point].

For `CCc1cccc(C)c1NC(=O)c1cc(-c2ccncc2)nc2ccccc12`, which Potency is on record?
The Potency was inconclusive: 44.7 µM [inhibitor, partial curve, poor fit].

How did the Potency turn out when `COc1ccc(C(=O)N2CCn3c(C)ccc3C2C)cc1` (stereo not given) was run?
The Potency was inconclusive: 50.1 µM [inhibitor, partial curve, poor fit].

With `CN1CCC2(CCN3CCc4c(oc5ccccc45)C3C2)N(C)C1=O` (stereo not given) as the molecule, how does the Potency read?
Its Potency is active: 15.8 µM.

How did the activity, negative = inhibition turn out when `Cc1cccc(C(=O)NNC(=O)c2csc(N3CCOCC3)n2)c1C` was run?
The activity, negative = inhibition was inactive: 3% [at 12.7 µM].

For `CCOc1ccc(-c2cc(C(=O)N/N=C(\C)c3cccnc3)c3ccccc3n2)c(OCC)c1`, which Potency is on record?
Its Potency is inconclusive: 89.1 µM [inhibitor, single point].

For `Cc1ccccc1NC(=O)Cc1nc(COC(=O)CCc2ccccc2)cs1`, which Potency is on record?
Its Potency is inconclusive: 3.16 µM [inhibitor, partial curve, poor fit].

For `COc1ccc(CN(C)CC(=O)Nc2cccc(S(N)(=O)=O)c2)c(OC)c1OC`, which Potency is on record?
The Potency was active: 15.8 µM.

With `CC(C)OC(=O)CC12CN3CN(C1)CC(CC(=O)OC(C)C)(C3)C2=O` as the molecule, how does the Potency read?
Its Potency is “inactive”.

With `COc1cccc(-c2nnc(SCC(=O)NC3CCCCC3)o2)c1` as the molecule, how does the Potency read?
Its Potency is active: 8.91 µM.

For `CCOC(=O)c1[nH]c2ccc(OC)cc2c1NC(=S)N1CCN(c2ccccc2OC)CC1`, which Potency is on record?
Its Potency is active: 79.4 µM.

With `CCCCCC(=O)Nc1cccc(C2=NOC3(C2)C[C@@H](C(N)=O)N(C(=O)c2cc([N+](=O)[O-])cc([N+](=O)[O-])c2)C3)c1` (stereo not given in full) as the molecule, how does the Potency read?
Its Potency is inconclusive: 3.16 µM [inhibitor, single point].

`O=C(N/N=C/c1cccnc1)C(O)(c1ccccc1)c1ccccc1` was tested. Which Potency did it give?
Its Potency is “inactive”.

`NC(=S)N/N=C\c1c2ccccc2cc2ccccc12` was tested. Which Potency did it give?
Its Potency is active: 7.08 µM.

How did the Potency turn out when `O=C(O)C1=C(C(=O)N2CCN(C(=O)c3ccco3)CC2)CCCC1` was run?
The Potency was inconclusive: 70.8 µM [inhibitor, partial curve, poor fit].

`Cc1cccc(CC2CC(=O)N(c3ccc(C)cc3Br)C2=O)c1` (stereo not given) was tested. Which Potency did it give?
Its Potency is “inactive”.

How did the activity, negative = inhibition turn out when `CO[C@]12CC(COC(=O)c3cncc(Br)c3)CN(C)[C@@H]1Cc1cn(C)c3cccc2c13` (stereo not given in full) was run?
The activity, negative = inhibition was inactive: -33% [at 2.33 µM].

How did the Potency turn out when `CCCCOc1ccc(S(=O)(=O)Nc2ccc(-c3ccc(N4CCC(C)CC4)nn3)cc2)cc1` was run?
The Potency was “inactive”.

For `CSc1ncc(CN2CCCC(C(=O)Nc3ccc(-c4ccco4)cc3)C2)cn1` (stereo not given), which Potency is on record?
The Potency was active: 10 µM.

— PubChem BioAssay AID504332 (National Center for Advancing Translational Sciences (NCATS), 2011)
